# Assay results from a collection of fitness landscapes (doi:10.1126/science.1257360).
# This is one part of the list.
# B1: PhoQ; a variant is named by its letters at X, in order, P23837 (parent)
# chain: MKKLLRLFFPLSLRVRFLLATAAVVLVLSLAYGMVALIGYSVSFDKTTFRLLRGESNLFYTLAKWENNKLHVELPENIDKQSPTMTLIYDENGQLLWAQRDVPWLMKMIQPDWLKSNGFHEIEADVNDTSLLLSGDHSIQQQLQEVREDDDDAEMTHSVAVNVYPATSRMPKLTIVVVDTIPVELKSSYMVWSWFIYVLSANLLLVIPLLWVAAWWSLRPIEALAKEVRELEEHNRELLNPATTRELTSLVRNLNRLLKSERERYDKYRTTLTDLTHSLKTPLXXLQXXLRSLRSEKMSVSDAEPVMLEQISRISQQIGYYLHRASMRGGTLLSRELHPVAPLLDNLTSALNKVYQRKGVNISLDISPEISFVGEQNDFVEVMGNVLDNACKYCLEFVEISARQTDEHLYIVVEDDGPGIPLSKREVIFDRGQRVDTLRPGQGVGLAVAREITEQYEGKIVAGESMLGGARMEVIFGRQHSAPKDE
# Variants of: B1
# Experiment: enrichment ratio after two sorts for PhoP signalling (ratio (wild type AVST 3.29)); higher = more functional
# Details: with PhoP (E. coli)
row,Variant,enrichment ratio
1,AWSY,≤ 0.25
2,WPQE,≤ 0.25
3,QYWF,≤ 0.25
4,TVRL,0.897
5,IVCA,0.421
6,YNTE,≤ 0.25
7,NDCN,≤ 0.25
8,DFGM,≤ 0.25
9,HPRR,≤ 0.25
10,TYFV,≤ 0.25
11,DATG,≤ 0.25
12,GTPQ,≤ 0.25
13,AYGI,≤ 0.25
14,QNFI,≤ 0.25
15,MAMR,≤ 0.25
16,VYDK,≤ 0.25
17,GLAN,≤ 0.25
18,LWKQ,≤ 0.25
19,ITTV,≤ 0.25
20,QFWL,≤ 0.25
21,TEYT,3.84
22,TVTG,15.3
23,EWCR,≤ 0.25
24,DYEI,≤ 0.25
25,DTTK,≤ 0.25
26,HSFP,≤ 0.25

row,Variant,enrichment ratio
1,FHSW,≤ 0.25
2,YWFS,≤ 0.25
3,KGRT,≤ 0.25
4,VKTT,≤ 0.25
5,SLVN,1.02
6,SELC,20.4
7,YYIH,≤ 0.25
8,TKLG,10
9,MPRG,≤ 0.25
10,SRYP,≤ 0.25
11,DMMW,≤ 0.25
12,VFMN,≤ 0.25
13,DQES,≤ 0.25
14,NGIG,≤ 0.25
15,SEHH,≤ 0.25
16,RCKE,≤ 0.25
17,HGYC,≤ 0.25
18,IVSP,≤ 0.25
19,WKYD,≤ 0.25
20,SYFS,≤ 0.25
21,HMDS,≤ 0.25
22,DISE,≤ 0.25
23,KTII,≤ 0.25
24,AVCQ,3.67
25,RGAT,≤ 0.25
26,NTCH,≤ 0.25

row,Variant,enrichment ratio
1,PFHA,≤ 0.25
2,MLLF,1.3
3,GYHF,≤ 0.25
4,RGPH,≤ 0.25
5,FCQK,≤ 0.25
6,NWDL,≤ 0.25
7,PSQT,≤ 0.25
8,ILDG,≤ 0.25
9,WWCH,≤ 0.25
10,QARV,≤ 0.25
11,WKFL,≤ 0.25
12,MRVE,≤ 0.25
13,KFDQ,≤ 0.25
14,IFEY,≤ 0.25
15,TCQS,6.51
16,ILSN,≤ 0.25
17,PHVE,≤ 0.25
18,IDTA,≤ 0.25
19,QEHP,≤ 0.25
20,SPGW,≤ 0.25
21,WHKY,≤ 0.25
22,RKLM,0.532
23,LNYL,≤ 0.25
24,NINF,≤ 0.25
25,PMVE,≤ 0.25
26,MREW,≤ 0.25

row,Variant,enrichment ratio
1,NQDG,≤ 0.25
2,VKFS,≤ 0.25
3,VYDG,≤ 0.25
4,MSPD,≤ 0.25
5,RYAQ,≤ 0.25
6,SDFG,≤ 0.25
7,WHKR,≤ 0.25
8,WAFL,≤ 0.25
9,PIKF,≤ 0.25
10,TKSI,14.9
11,PSMI,≤ 0.25
12,ISTL,≤ 0.25
13,ELEG,≤ 0.25
14,YQWL,≤ 0.25
15,WQIQ,≤ 0.25
16,YWVE,≤ 0.25
17,IEEA,≤ 0.25
18,NDKG,≤ 0.25
19,YMEG,≤ 0.25
20,NCDS,≤ 0.25
21,NKSG,≤ 0.25
22,HEVD,≤ 0.25
23,CLTL,3.65
24,SHKW,≤ 0.25
25,VPTN,≤ 0.25
26,DLQT,≤ 0.25

row,Variant,enrichment ratio
1,IDNA,≤ 0.25
2,HGLW,≤ 0.25
3,SYMH,≤ 0.25
4,LVER,≤ 0.25
5,DYNE,≤ 0.25
6,IKDM,≤ 0.25
7,GDMF,≤ 0.25
8,FCVG,≤ 0.25
9,FPCE,≤ 0.25
10,RSIW,≤ 0.25
11,QHQC,≤ 0.25
12,EQQD,≤ 0.25
13,RMKI,≤ 0.25
14,KAKG,≤ 0.25
15,NWCK,≤ 0.25
16,WLPP,≤ 0.25
17,PLRG,≤ 0.25
18,DWSA,≤ 0.25
19,ICGS,≤ 0.25
20,QYNY,≤ 0.25
21,VMRN,≤ 0.25
22,AFWA,≤ 0.25
23,AAIT,≤ 0.25
24,RQPT,≤ 0.25
25,SANE,≤ 0.25
26,WPQH,≤ 0.25

row,Variant,enrichment ratio
1,QAQF,≤ 0.25
2,MLLK,≤ 0.25
3,YGAQ,≤ 0.25
4,YIIA,≤ 0.25
5,RDMI,≤ 0.25
6,FRAY,≤ 0.25
7,ASDA,≤ 0.25
8,DVFW,≤ 0.25
9,SLQA,≤ 0.25
10,DTKW,≤ 0.25
11,QKYL,≤ 0.25
12,QEYL,1.39
13,MKEC,≤ 0.25
14,EYCR,≤ 0.25
15,RPWK,≤ 0.25
16,HQVM,≤ 0.25
17,AAGS,≤ 0.25
18,WMLI,≤ 0.25
19,SVGI,3.36
20,GFYL,≤ 0.25
21,KLEV,≤ 0.25
22,YPAR,≤ 0.25
23,TELW,≤ 0.25
